# From PubChem BioAssay AID463173 (ICCB-Longwood Screening Facility, Harvard Medical School, 2010)
# Hit rate of the full screen: of about 52,000 compounds, about 4,300 (8.3%) were called active. Cut-off read from the data, not from the text of the source: active = survival mostly below about 52% (no sharp cut-off); inactive = mostly above about 56%. This is one part of the list.
# System: DeltatarO mutant
# Assay: growth inhibition of S. aureus wild type versus tarO mutant, primary screen, teichoic acid synthesis inhibitors, RN4220, OD600 (AID 463173)
# Settings: OD600, 18 h, stronger effect = lower value, screened at 18.75 µg/mL (by protocol)
row,SMILES,survival
1,O=C(CN1C(=O)COc2ccc(S(=O)(=O)N3CCOCC3)cc21)N1CCN(c2cccc(Cl)c2)CC1,inactive: 74%
2,Cc1cccc(-c2nc3c4ccccc4n(Cc4cccc(Cl)c4)c(=O)n3n2)c1,inactive: 97%
3,COc1ccc(C(NC(C)=O)c2ccc(OC)cc2)cc1,inactive: 77%
4,CC1CCN(CCC(=O)Nc2ccc(Br)cc2)CC1,inactive: 102%
5,CCCCS(=O)(=O)CC(O)CSc1nc(-c2ccc(C)cc2)cc(-c2ccccc2)c1C#N (stereo unspecified),inactive: 68%
6,COc1cccc(C(=O)Nc2cccc(-c3cn4ccsc4n3)c2)c1OC,inactive: 77%
7,CCOC(=O)/C(C#N)=C/c1ccc(-c2ccc(Br)cc2)o1,inactive: 81%
8,Cc1ccccc1-c1noc(-c2cccnc2N2CCN(c3ccccc3)CC2)n1,inactive: 102%
9,CCOC(=O)c1ccc(NC(=O)CCn2c(=O)c3cccn3c3cccnc32)cc1,inactive: 69%
10,O=C(Nc1ccc(F)cc1F)c1cc(-c2ccc(Cl)cc2)on1,inactive: 76%
11,CCc1cccc(NS(=O)(=O)c2ccc(-n3cccn3)cc2)c1,inactive: 101%
12,CCN(CC)C(=O)Cn1c(=O)n(-c2ccc(C)c(C)c2)c(=O)c2c3c(sc21)CCCCC3,inactive: 95%
13,Cc1ccc(C)c(N2CCN(C(=O)CCc3nnc4n(CC(C)C)c(=O)c5ccccc5n34)CC2)c1,inactive: 91%
14,Cc1ccc(CN2CCc3nc(Nc4ccc5c(c4)OCCO5)ncc3C2)cc1,inactive: 89%
15,CCS(=O)(=O)N1CCc2cc(C(=O)Nc3ccc(C(=O)OC)cc3)ccc21,inactive: 49%
16,CCn1cc(C(=O)N2CCN(c3cccc(Cl)c3)CC2)c2cc(OC)c(OC)cc2c1=O,inactive: 54%
17,CC1=C(c2ccc(C(C)C)cc2)S(=O)(=O)NC1=NCCCN1CCN(c2ccccc2F)CC1,inactive: 82%
18,C#CCSc1nc(-c2ccccc2)cc(-c2ccccc2)c1C#N,active: 40%
19,Cc1ccc(-n2c3c(cc(-c4nc(-c5ccc(Cl)cc5)cs4)c2=O)C(=O)CC(C)(C)C3)cc1C,inactive: 74%
20,Cc1ccccc1C(=O)Nc1ccc(-c2nc3ccccc3o2)cc1,inactive: 101%
21,O=S(=O)(c1ccc(-c2cc(C(F)(F)F)on2)s1)N1CCN(c2ccc(F)cc2)CC1,inactive: 119%
22,Cc1cc(Br)ccc1NC(=O)Cn1cc(S(=O)(=O)N2CCN(c3ccccc3F)CC2)c2ccccc2c1=O,inactive: 88%

row,SMILES,survival
1,COc1ccc(NC(=O)C2CCCN(c3ncnc4c3nc3n4CCCCC3)C2)c(OC)c1 (stereo unspecified),inactive: 91%
2,CCN1c2ccccc2-c2nc(SCC(=O)NCc3ccccc3)ncc2S1(=O)=O,inactive: 93%
3,COC(=O)CCNC(=O)NC(CCC(C)C)c1c(-n2cccc2)sc2c1CCN(C)C2 (stereo unspecified),inactive: 75%
4,CCC(=O)N1CCc2cc(S(=O)(=O)NCCC(=O)Nc3cc(C)ccc3OC)ccc21,inactive: 125%
5,COc1ccccc1NC(=O)Cn1c(=O)n(CCC(=O)NCC2CCCO2)c(=O)c2cc(OC)c(OC)cc21 (stereo unspecified),inactive: 135%
6,COc1ccccc1-c1cc2nc(C)c(CCC(=O)O)c(C)n2n1,inactive: 88%
7,CCCc1cc(=O)[nH]c(SCC(=O)N2CCN(c3ccccc3OC)CC2)n1,inactive: 77%
8,CCCN(CCC)C(=O)Cn1c(=O)n(-c2ccc(Cl)cc2)c(=O)c2c3c(sc21)CCCCC3,inactive: 80%
9,Cc1ccc(-c2nn(-c3ccc(F)cc3)c3c2cnc2cc(F)c(F)cc23)cc1,inactive: 82%
10,Cc1cc(=O)oc2c3c(ccc12)OCC3=O,inactive: 98%
11,CC(=O)c1ccc(Nc2nc3c(S(=O)(=O)c4ccccc4)nnn3c3ccc(Cl)cc23)cc1,inactive: 68%
12,Cc1ccc(NC(=O)Cn2c(=O)c3ccccc3n3nncc23)cc1,inactive: 114%
13,N=C1CNc2ccccc2C(=O)O1,inactive: 96%
14,Cc1ccc(C)c(S(=O)(=O)c2nnn3c2nc(Nc2ccc(C)c(C)c2)c2ccccc23)c1,inactive: 132%
15,COc1cccc(CN(Cc2ccco2)C(c2ccc(OC)c(OC)c2)c2nnnn2Cc2ccccc2)c1 (stereo unspecified),inactive: 67%
16,Cc1ccc(CCNC(=O)c2c[nH]c3ccc(S(=O)(=O)Nc4ccc(C)cc4C)cc3c2=O)cc1,inactive: 104%
17,COc1cccc(NC(=O)CCN2CCN(c3ccccc3)CC2)c1,inactive: 62%
18,COc1cccc(C(=O)NCC(c2ccc(N(C)C)cc2)N2CCc3ccccc32)c1 (stereo unspecified),inactive: 144%
19,COc1ccc(-c2nnn(CC(=O)N(CC3CCCO3)C(C(=O)NC3CCCCC3)c3cccs3)n2)cc1 (stereo unspecified),inactive: 87%
20,Cc1nn(-c2ccc(N3CCCCC3)nn2)c(C)c1CCC(=O)NCc1ccc(OC(C)C)cc1,inactive: 82%
21,CC(=O)c1cccc(Nc2nc(-c3cccc(C)c3)nc3ccccc23)c1,active: 4%
22,Cc1ccc(NC(=O)Cn2cc(S(=O)(=O)N3CCCC3)c(S(=O)(=O)N3CCCC3)c2)cc1F,inactive: 113%

row,SMILES,survival
1,Cc1ccc(S(=O)(=O)c2c(Nc3cc(C)ccc3C)sc(C(=O)c3ccc4c(c3)OCO4)c2N)cc1,inactive: 129%
2,CC(=O)c1c(C)oc2ccc(N(C(=O)Oc3ccccc3)S(=O)(=O)c3ccccc3)cc12,inactive: 60%
3,CC1CCCN(c2c(S(=O)(=O)c3ccccc3)cnc3ccc(Cl)cc23)C1 (stereo unspecified),inactive: 136%
4,CC(CNC(=O)c1cc(-c2ccccc2)n[nH]1)c1ccccc1 (stereo unspecified),inactive: 71%
5,CCCS(=O)(=O)N1CCN(S(=O)(=O)c2ccccc2)CC1,inactive: 81%
6,CCS(=O)(=O)N1CC(=O)N(c2cc(C)ccc2C)C(C)(C(=O)NC2CCCCC2)C1 (stereo unspecified),inactive: 72%
7,Cc1ccc(Cl)cc1NC(=O)N1CCC2(CC1)Oc1ccccc1C(=O)N2Cc1ccccc1F,inactive: 116%
8,COc1ccc(-n2nnc(-c3nsc(NC(=O)c4cccs4)n3)c2C)cc1OC,inactive: 92%
9,Cc1ccccc1CN(Cc1ccco1)C(=O)c1cc2ccccc2oc1=O,active: 44%
10,Cc1cccc(NC(=O)C(=O)NCCc2sc(-c3ccccc3)nc2C)c1C,inactive: 79%
11,CCOC(=O)CN1C(=O)C(C)(C)Oc2ccc(C(=O)NC(C)C)cc21,inactive: 92%
12,Cc1c(Cl)cccc1NC(=O)C(CCS(C)(=O)=O)N1Cc2ccccc2C1=O (stereo unspecified),inactive: 68%
13,COc1ccc(-c2cn3c(n2)sc2cc(C(=O)NC4CCCCCC4)ccc23)cc1,inactive: 73%
14,COc1cccc(NC(=O)c2sc3nc(C)c(C(=O)Nc4ccc(Cl)cc4)c(-c4ccc(Br)cc4)c3c2N)c1,inactive: 114%
15,O=C(CSc1n[nH]c(-c2ccccc2)n1)N1CCN(c2ccccc2F)CC1,inactive: 120%
16,CCN1/C(=C\C=C2C(=O)OC(C)(C)OC2=O)Sc2ccccc21,inactive: 96%
17,COc1ccc2c(CNCc3ccccc3OC)c(C(=O)O)n(Cc3ccc(F)cc3Cl)c2c1,inactive: 99%
18,CCc1ccc(NC(=O)C2CCC(CNS(=O)(=O)c3ccc4c(c3)C(C)(C)C(=O)N4C)CC2)cc1 (stereo unspecified),inactive: 45%
19,Cc1cccc(NC(=O)c2sc3nc(-c4ccccc4)cn3c2C)c1C,inactive: 98%
20,Nc1cc(=O)nc(SCC(=O)Nc2ccc(F)cc2)n1-c1cccc(Cl)c1,inactive: 145%
21,Cc1cccc(N2CCN(C(=O)c3c(C)oc4ncnc(N5CCOCC5)c34)CC2)c1C,inactive: 88%
22,COc1ccc(C)cc1NC(=O)c1cc(S(=O)(=O)N2CCC(C)CC2)cn1C,inactive: 73%

row,SMILES,survival
1,COc1ccc(CCN2C(=O)N(c3ccc(C)cc3)C(=O)C2CC(=O)Nc2ccc(F)cc2)cc1 (stereo unspecified),inactive: 53%
2,Cc1nn(C(=O)COc2ccccc2Br)c(C)c1Sc1ccccc1,inactive: 54%
3,COc1ccc(CN2C(=O)N(c3ccc(F)cc3)C(=O)C2CC(=O)Nc2cc(OC)cc(OC)c2)cc1 (stereo unspecified),inactive: 81%
4,CCc1ccc(NC(=O)C(NS(=O)(=O)c2cccc3nsnc23)c2ccccc2)cc1 (stereo unspecified),inactive: 68%
5,O=C(Cn1c(CC(=O)N2CCCC2)nc2ccccc21)NCc1ccccc1,active: 64%
6,CCOC(=O)C1=C(C)NC(=O)NC1c1cn(-c2ccccc2)nc1-c1ccc(OC(C)C)cc1 (stereo unspecified),inactive: 44%
7,O=C(Nc1nc2n(n1)C(c1ccc(Cl)cc1)C=C(c1ccccc1)N2)c1ccco1 (stereo unspecified),active: 35%
8,Cc1nn(C)c2c1c(C(F)(F)F)cc(=O)n2C(C)C(=O)NCCc1ccccc1 (stereo unspecified),inactive: 75%
9,COc1ccc(CCNC(c2ccc(F)cc2)c2nnc(-c3ccccc3Cl)o2)cc1OC (stereo unspecified),inactive: 57%
10,COCC(=O)N(CC1CCCO1)c1nnc(C)s1 (stereo unspecified),inactive: 83%
11,COc1ccc(-c2c3c(=O)n(C)c(=O)n(C)c3c3n2-c2ccccc2NC3c2ccc(O)cc2O)cc1 (stereo unspecified),active: 0%
12,COc1ccc2c(Sc3ccc(C)cc3)c(C(=O)NCCc3ccccc3)[nH]c2c1,inactive: 91%
13,COc1ccc(N(CC(=O)Nc2cccc(C(C)=O)c2)S(=O)(=O)c2ccccc2)c(OC)c1,active: 48%
14,Cc1cc(OCCCn2c(CCNC(=O)C3CCCCC3)nc3ccccc32)ccc1Cl,active: 4%
15,CCOc1ccc(C(=O)N(Cc2cc(OC)c(OC)c(OC)c2)c2ccccn2)cc1,inactive: 80%
16,OCc1cnc(SCc2ccc(F)cc2)n1Cc1ccc(F)cc1,inactive: 88%
17,O=C(CSc1nc(-c2cccs2)nc2cc(=O)[nH]n12)Nc1cccc(C(F)(F)F)c1,inactive: 94%
18,O=C(c1ccc2c(c1)N(Cc1c(F)cccc1Cl)C(=O)c1ccccc1S2)N1CCOCC1,inactive: 94%
19,CCc1cccc(NC(=O)C2Cc3ccccc3N2C(=O)c2ccccc2)c1 (stereo unspecified),inactive: 107%
20,Cc1ccc2c(c1)c(CC(=O)Nc1ccc(C)c(F)c1)c(C(=O)O)n2C,inactive: 58%
